The values that follow come from article PMC4336329 (PLoS ONE, 2015).

Out of some 310,000 compounds screened, about 14,000 (4.5%) showed an effect of 50% or more. The effect is printed as a negative number. The list shows a part of the results.
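Note: peak tail current of the secondary pulse compared with the same well before compound.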

The target of the experiment is human ether-à-go-go-related gene (hERG) potassium channel (human, UniProt Q12809). Kind of experiment: primary screen, population patch clamp on CHO cells stably expressing hERG.
Sequence of human ether-à-go-go-related gene (hERG) potassium channel (Q12809 whole entry, looked up): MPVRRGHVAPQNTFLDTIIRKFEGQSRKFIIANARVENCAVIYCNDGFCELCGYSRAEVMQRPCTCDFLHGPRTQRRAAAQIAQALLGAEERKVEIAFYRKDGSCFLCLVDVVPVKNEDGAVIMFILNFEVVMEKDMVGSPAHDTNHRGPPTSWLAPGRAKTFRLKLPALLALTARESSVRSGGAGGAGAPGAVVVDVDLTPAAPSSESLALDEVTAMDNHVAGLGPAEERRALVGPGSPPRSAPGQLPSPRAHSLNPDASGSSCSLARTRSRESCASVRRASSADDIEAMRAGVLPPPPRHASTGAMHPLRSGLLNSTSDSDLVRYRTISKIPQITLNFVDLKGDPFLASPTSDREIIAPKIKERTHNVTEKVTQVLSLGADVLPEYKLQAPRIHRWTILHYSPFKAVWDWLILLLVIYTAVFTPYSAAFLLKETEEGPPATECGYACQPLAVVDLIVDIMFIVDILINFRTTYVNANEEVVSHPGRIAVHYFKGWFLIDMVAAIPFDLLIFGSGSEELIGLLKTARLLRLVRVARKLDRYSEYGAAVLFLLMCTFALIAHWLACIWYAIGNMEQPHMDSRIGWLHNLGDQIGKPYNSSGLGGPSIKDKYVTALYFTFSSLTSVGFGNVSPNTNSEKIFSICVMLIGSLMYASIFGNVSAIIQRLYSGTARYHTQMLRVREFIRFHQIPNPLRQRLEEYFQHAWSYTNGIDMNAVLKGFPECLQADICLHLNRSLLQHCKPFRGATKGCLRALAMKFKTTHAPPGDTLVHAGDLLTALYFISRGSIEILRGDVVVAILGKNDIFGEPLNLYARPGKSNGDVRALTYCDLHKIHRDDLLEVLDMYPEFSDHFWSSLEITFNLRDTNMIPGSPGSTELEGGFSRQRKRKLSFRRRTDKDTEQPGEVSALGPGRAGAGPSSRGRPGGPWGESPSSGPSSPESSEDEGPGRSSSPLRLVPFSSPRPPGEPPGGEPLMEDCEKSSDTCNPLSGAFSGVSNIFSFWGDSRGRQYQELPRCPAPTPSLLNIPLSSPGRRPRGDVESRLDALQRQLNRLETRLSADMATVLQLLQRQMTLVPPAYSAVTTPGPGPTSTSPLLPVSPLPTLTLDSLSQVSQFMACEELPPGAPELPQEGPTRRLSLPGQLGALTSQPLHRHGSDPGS
`N#Cc1ccccc1S(=O)(=O)N1CCN(C(=O)CN2CCCC2c2cccs2)CC1` (stereo not drawn): the “hERG current change (%, negative = inhibition) at 10uM” value is given as -32.3%.
Turning to `O=C(CCN1C(=O)c2ccccc2C1=O)OCN1C(=O)c2ccccc2C1=O`, the “hERG current change (%, negative = inhibition) at 10uM” value is on record as -11.5%.
For `O=C(O)/C=C/c1ccc(S(=O)(=O)N2CCCCCC2)cc1` the value was 8.98%; for `CC(=O)N1CCN(C(=O)CCCNC(=O)c2ccc(Cl)cc2)CC1`, 14%.
In the case of `Cc1onc(-c2ccccc2)c1C(=O)NC(C)C` it was 13.2%; in that of `Cc1cc(C)c(S(=O)(=O)Nc2cc(C)on2)c(C)c1`, 5.9%.
On to `O=C(CNc1cccc(S(=O)(=O)N2CCCC2)c1)Nc1ccc(F)c(F)c1`, for which the “hERG current change (%, negative = inhibition) at 10uM” value is given as -18%.
For `CCOC(=O)C1CCCN(C(=O)CCNC(=O)Cn2ccc3ccccc3c2=O)C1` (stereo not drawn) the value was 17.5%.
On to `CN(c1cccc(NC(=O)c2ccc(N(C)S(=O)(=O)c3ccccc3)cc2)c1)S(C)(=O)=O`, for which the “hERG current change (%, negative = inhibition) at 10uM” value is listed as 16.8%.
Turning to `CS(=O)(=O)N1CCN(c2ccccc2NC(=O)Nc2cccc(Cl)c2)CC1`, the “hERG current change (%, negative = inhibition) at 10uM” value was determined as 23.6%.
Consider `COc1ccc(C(=O)NC2CC2)cc1OC1CCN(Cc2cnn(C)c2)CC1`, for which the “hERG current change (%, negative = inhibition) at 10uM” value was -32.7%.
For `COC(=O)COc1ccc(/C=C2/NC(=O)N(CC(=O)OC)C2=O)cc1` the value was 12.3%.
For the compound `Cc1cc(NC(=O)c2cnn3c(C(F)F)cc(C4CC4)nc23)no1`, the “hERG current change (%, negative = inhibition) at 10uM” value was -9.28%.
For the compound `O=C(OCC(=O)N1CCN(c2ccccc2)CC1)c1ccncc1`, the “hERG current change (%, negative = inhibition) at 10uM” value is -5.92%.
For `Cc1nn(-c2ccccc2)c(=S)c2ccccc12` the value was 12.1%.
In the case of `O=C(CNc1cccc(S(=O)(=O)N2CCOCC2)c1)Nc1ccc(C(F)(F)F)cc1` it was -44.2%; in that of `O=C1c2c(O)cc(O)cc2O[C@H](c2ccc(O)cc2)[C@H]1O`, 7.83%; in that of `Cc1ccc(S(=O)(=O)Nc2cc(S(=O)(=O)N3CCOCC3)ccc2NCC2CCCO2)cc1` (stereo not drawn), -6.01%.
In the case of `CC(C)(C)c1ccc(OCc2ccc(C(=O)Nc3cccnc3)o2)cc1` it was -14.3%.
Regarding `Cn1c(O)c(C=NCCCC(=O)O)c(=O)n(C)c1=O`, the “hERG current change (%, negative = inhibition) at 10uM” value was -6.59%.
For `Cc1ccnc(NS(=O)(=O)c2ccc(NC(=O)c3ccc(C)o3)cc2)n1` the value was -0.797%; for `CN(C)c1ccc(-c2nnn(CC(=O)N3c4ccccc4CCc4ccccc43)n2)cc1`, 11.7%; for `CCOC(=O)c1c(-c2ccccc2)oc2ccc(OCC(=O)NNC(=O)CCCC(=O)O)cc12`, 19.7%.
Regarding `CCOc1cccc(=O)c2c(C)n(Cc3ccccc3)c(C)c12`, the “hERG current change (%, negative = inhibition) at 10uM” value is 11.8%.
In the case of `CC(C)NC(=O)C(=O)NCCN1CCN(S(=O)(=O)c2ccc(Cl)cc2)CC1` it was -33.3%.
Consider `O=C(Oc1ccccc1)c1cccc(COC(=O)c2cnccn2)c1`, for which the “hERG current change (%, negative = inhibition) at 10uM” value was 1.45%.
In the case of `O=C(NNC(=O)c1ccccc1O)c1ccc(NS(=O)(=O)c2ccc(F)cc2)cc1` it was 6.21%; in that of `COc1ccc(OC)c(CNC(=O)c2nn(C)c3c2CS(=O)(=O)c2ccccc2-3)c1`, 15.3%.
For `Cc1ccc(NN=C2c3ccccc3-c3ccccc32)cc1.Cl` the value was 21.9%; for `Cc1ccc(Nc2cc(C)nc3ncnn23)cc1`, 2.81%.
For `Cc1c(C(=O)O)nn(-c2cccc(C(F)(F)F)c2)c(=O)c1C#N` the value was 4.53%; for `Cc1ccc2[nH]c(C(=O)O)c(-c3ccccc3)c2c1`, 3.08%.
Turning to `CCn1c(CSc2ncn[nH]2)nc2cc(C(=O)O)ccc21`, the “hERG current change (%, negative = inhibition) at 10uM” value was -4.97%.
For `CCCCC1(C)Nc2ccccc2-c2nc3ccccc3n21` (stereo not drawn) the value was -0.873%; for `C/C=C/C(=O)Nc1nnc(C(C)C)s1`, -4.91%; for `Cc1cccc(C)c1-n1c(C)cc(/C=N/NC(=O)c2ccncc2)c1C`, -12%.
Take `CCN(CC)C(=O)C1=C(C)Nc2nc3ccccc3n2C1c1cccc(OC)c1` (stereo not drawn): the “hERG current change (%, negative = inhibition) at 10uM” value is 6.19%.
In the case of `O=C(OCc1cn(Cc2ccccc2)nn1)c1ccccc1` it was -2.92%; in that of `CCS(=O)(=O)N1CCC(C(=O)N2CCN(Cc3ccccc3)CC2)CC1`, -11.2%; in that of `CCOC(=O)C1CCN(/C=C2/C(=O)NC(=O)N(c3ccc(OCC)cc3)C2=O)CC1`, 5.02%.
In the case of `COc1ccc(-n2c(C)ccc2-c2ccccc2)cn1` it was -2.63%; in that of `CC(C)=NNc1nc2c(c(=O)[nH]c(=O)n2C)n1CCc1ccccc1`, 13.3%; in that of `Cc1ccc(CNC(=O)CN2CCC(C(N)=O)CC2)cc1`, 6.94%.
On to `Cc1ccc(C(=O)N2CCCC(CCC(=O)N3CCN(c4ccccn4)CC3)C2)s1` (stereo not drawn), for which the “hERG current change (%, negative = inhibition) at 10uM” value is given as -24.5%.
For `Cl.OC(COc1ccc(Br)cc1)CN1CCC(Cc2ccccc2)CC1` (stereo not drawn) the value was -85.9%; for `Cc1ccc(O)c(NC(=O)c2ccc3c(c2)C(=O)N(CC(C)C)C3=O)c1`, 17.7%; for `CN=C1NN=C(c2cc(C)n(-c3c(C)n(C)n(-c4ccccc4)c3=O)c2C)CS1.Cl`, 15.4%.
Take `CC(=O)Nc1ccc(S(=O)(=O)N2CCSC2)cc1`: the “hERG current change (%, negative = inhibition) at 10uM” value worked out at 1.65%.
Turning to `O=C(CSc1nnc(Cn2nnc(-c3ccccc3)n2)n1-c1ccccc1)Nc1ccccc1`, the “hERG current change (%, negative = inhibition) at 10uM” value is on record as 15.9%.
Consider `COC(=O)C(CCCN1C(=O)c2ccccc2C1=O)(NC(C)=O)c1nn[nH]n1` (stereo not drawn), for which the “hERG current change (%, negative = inhibition) at 10uM” value worked out at 12.7%.
Take `CCN(CC)CCN=Cc1c(O)n(Cc2ccco2)c(=O)[nH]c1=O`: the “hERG current change (%, negative = inhibition) at 10uM” value is recorded as 0.932%.
For the compound `COC(=O)c1ccccc1NC(=O)Nc1nnc(N2CCC(C)CC2)s1`, the “hERG current change (%, negative = inhibition) at 10uM” value is on record as 4.81%.
In the case of `C#CCNc1nc(CC)nc2c1nnn2Cc1ccccc1F` it was -0.696%.
For `C=C(C)C1Cc2c(C)nn(-c3cccc4cccnc34)c2C1` (stereo not drawn) the value was 0.118%; for `O=C(NNC(=O)c1ccc(-c2ccc([N+](=O)[O-])cc2)o1)c1ccncc1`, -17.9%.
In the case of `Cc1ccc(NC(=O)CN(CCc2ccccc2)S(C)(=O)=O)cc1` it was -1.81%; in that of `CCOC(=O)Nc1ccc2c(CN3CCN(S(=O)(=O)c4ccc(C(C)C)cc4)CC3)cc(=O)oc2c1`, 6.35%; in that of `COc1cc(CN2CCC(Cc3ccccc3)CC2)cc(OC)c1OC.O=C(O)C(=O)O`, -52.8%.
On to `CSC1=NC(C)(C)CC2(C)Nc3ccccc3N12` (stereo not drawn), for which the “hERG current change (%, negative = inhibition) at 10uM” value was 10.1%.
For `NC(=O)c1cccc2cc3ccccc3cc12` the value was 19.2%.
For `O=S(=O)(Nc1ccccc1N1CCCCC1)c1ccc(Cl)s1` the value was 3.31%.
For `CN1CC(C(=O)c2cccs2)C(c2ccc(Cl)cc2)C1` (stereo not drawn), the “hERG current change (%, negative = inhibition) at 10uM” value was -49.2%.
Turning to `Cc1ccc(CNC(=O)c2ccc(C#CC(C)(C)O)s2)cc1`, the “hERG current change (%, negative = inhibition) at 10uM” value is given as -3.51%.
For `Cc1cc(OCC(=O)c2ccc(C(F)(F)F)cc2)n2cnnc2n1` the value was 5.8%; for `CC1CN(C(=O)COC(=O)c2ccc(N(C)C)cc2)CC(C)O1` (stereo not drawn), 8.42%; for `CC(=O)O[C@@]12CO[C@@H]1C[C@H](O)[C@@]1(C)C(=O)[C@H](O)C3=C(C)[C@@H](OC(=O)[C@H](O)[C@@H](NC(=O)OC(C)(C)C)c4ccccc4)C[C@](O)([C@@H](OC(=O)c4ccccc4)[C@H]21)C3(C)C`, -5.62%.
For `Cc1nnc(NC(=O)C2=COCCO2)s1` the value was 7.13%; for `Cc1nn(-c2ccccc2)c(C)c1C(=O)NCc1ccccc1F`, 3.78%; for `CC(C)(C)n1nnnc1C(c1cccs1)N(Cc1cccnc1)Cc1ccccc1Cl` (stereo not drawn), -11.4%.
In the case of `Cc1ccccc1C(=O)N1CCC(C(=O)OCc2ccccc2Cl)CC1` it was -40.3%; in that of `CCOC(=O)c1nnn(-c2nonc2N)c1CN(C)C1CCCCC1`, 4.08%; in that of `COc1ccc(NC(=O)CN2CCCC2)cc1`, 15.7%.
As to `O=C(Nc1nnc(S(=O)(=O)N2CCCCCC2)s1)c1cccc(Br)c1`, the “hERG current change (%, negative = inhibition) at 10uM” value was determined as 14.4%.
For `O=C(c1ccccn1)N1CCN(C(=O)c2ccccn2)CC1` the value was 1.19%; for `COc1ccc(-c2cn3nc(SCC(=O)NCC4CCCO4)ccc3n2)cc1` (stereo not drawn), -16.9%; for `CC(On1c(-c2ccccc2)nc2ccc(Cl)cc21)C(=O)O` (stereo not drawn), 73.3%.
For `O=C(C[n+]1cc(Br)cc(Br)c1)c1ccc(Cl)cc1.[Br-]` the value was -23.3%; for `Cc1cccc(OCC(=O)N2CCC(c3ccccc3)C2)c1` (stereo not drawn), -13.1%; for `O=C(NC1CC(=O)c2sccc21)c1cccc(C(F)(F)F)c1` (stereo not drawn), -14.4%.
With `COc1cc2c(=O)n(CCC(=O)NCC3CCCO3)c(=O)n(CC(=O)Nc3ccccc3C)c2cc1OC` (stereo not drawn), the “hERG current change (%, negative = inhibition) at 10uM” value was -36.7%.
For `COc1ccc(NC(=O)CN2C(=O)CSc3ccc(S(=O)(=O)N4CCCC4)cc32)cc1OC`, the “hERG current change (%, negative = inhibition) at 10uM” value is -1.88%.
On to `CCOC(=O)c1cc(NC(=O)c2ccco2)ccc1N1CCOCC1`, for which the “hERG current change (%, negative = inhibition) at 10uM” value is reported as -0.103%.
As to `COC(=O)c1cc(S(=O)(=O)N2CCN(Cc3ccccc3)CC2)cn1C`, the “hERG current change (%, negative = inhibition) at 10uM” value was -12.9%.
In the case of `COCCCNC(=O)C(C#N)c1nc2ccccc2nc1N1CCCC1` (stereo not drawn) it was -0.404%; in that of `CCOC(=O)C1(Cc2ccccc2C(F)(F)F)CCN(C(C)CCn2cccn2)CC1` (stereo not drawn), -65.6%.
As for `Cc1cc(NC(=O)CSc2nnnn2C)n(-c2ccccc2)n1`, the “hERG current change (%, negative = inhibition) at 10uM” value was -10.8%.
As for `O=C(COC(=O)CNC(=O)c1ccc(Cl)cc1)Nc1ccc2c(c1)OCCO2`, the “hERG current change (%, negative = inhibition) at 10uM” value came out at 9.35%.
